Reference: PubChem BioAssay AID1240 (Sanford-Burnham Center for Chemical Genomics, 2008)
Screen size: about 50,000 compounds; about 800 (1.6%) showed an effect of 50% or more. The list shows a part of the results.

What follows are compounds tested against Bcl-2-like protein 10 (Homo sapiens) (UniProt Q9HD36) (assay: TR3 peptide-Bcl-B binding displacers, biochemical primary FP assay, phenotype converters (AID 1240;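 further: 0% = Bcl-B with tracer peptide and DMSO and 100% = tracer peptide lacking Bcl-B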)). Details: GST-Bcl-B / FITC-TR3 peptide fluorescence polarization; stronger effect = higher value; compound at 3.75 mg/L.
UniProt Q9HD36, sequence (Q9HD36 whole entry, looked up): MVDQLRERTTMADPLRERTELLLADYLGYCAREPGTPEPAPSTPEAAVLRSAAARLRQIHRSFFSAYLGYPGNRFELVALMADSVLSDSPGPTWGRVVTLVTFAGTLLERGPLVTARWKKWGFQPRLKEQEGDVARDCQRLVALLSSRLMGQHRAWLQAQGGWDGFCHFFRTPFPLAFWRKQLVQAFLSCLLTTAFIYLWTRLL

First: Cc1c(NC(=O)c2cccc(OCc3ccccc3)c2)cccc1-c1nc2ccccc2o1
Second: O=C(Nc1ccc(O)cc1)c1ccc(-c2ccccc2)cc1
The displacement of the first is higher: 23.3% for the first, 0.7% for the second.

Compared with `Cc1ccccc1NC(=O)C(=O)NCCN1CCNCC1`, `Cc1ccc(NC(=O)C(=O)NC2CC2)c(C)c1` is lower in displacement: 12.9% for the first, 2.4% for the second.

First: CN1CCN(c2nc(-c3ccc(Cl)cc3)nc3ccccc23)CC1
Second: COc1ccccc1N1CCN(C2CC(=O)N(c3cccc(Br)c3)C2=O)CC1 (stereo not drawn)
The displacement of the first is higher: 3.6% for the first, -7.2% for the second.

First: Cc1c(N2C(=O)/C(=C/c3cccs3)SC2=S)c(=O)n(-c2ccccc2)n1C
Second: C=CCN1C(=O)/C(=C\c2ccc(OS(=O)(=O)c3ccccc3)c(OCC)c2)SC1=S
The displacement of the first is higher: 8.6% for the first, -12.6% for the second.

First: CCOC(=O)C1CCN(C(=O)c2cc(C(=O)OC)cc([N+](=O)[O-])c2)CC1
Second: O=C(Nc1ccc(Br)cc1C(=O)O)c1cc([N+](=O)[O-])cc([N+](=O)[O-])c1
The displacement of the first is higher: 5.2% for the first, 0.8% for the second.

First: Cc1ccc(S(=O)(=O)Nc2c(-c3ccccc3)c3cc(Br)ccc3[nH]c2=O)cc1
Second: COc1ccccc1/C=C/C(=O)c1c(-c2ccccc2)c2cc(Br)ccc2[nH]c1=O
The displacement of the first is higher: -18.1% for the first, -20.8% for the second.

Compared with `O=[N+]([O-])c1ccc2nc(Sc3nc4ccccc4s3)sc2c1`, `O=[N+]([O-])c1ccc(-c2nc(Cc3ccccc3)no2)cc1` is lower in displacement: 16.3% for the first, -7.2% for the second.

Compared with `COC(=O)C1(S(=O)(=O)c2ccc(Br)cc2)CCCC1`, `CC(C)CC(=O)Nc1ccc(S(N)(=O)=O)cc1` is lower in displacement: -0.3% for the first, -2.9% for the second.

Compared with `Cc1ccc(C(=O)Nc2ccc(S(=O)(=O)N3CCc4ccccc43)cc2)cc1`, `CC(=O)c1ccc(NC(=O)c2ccc(CN(c3ccc(C)c(C)c3)S(C)(=O)=O)cc2)cc1` is lower in displacement: 1.6% for the first, -3.1% for the second.

Going from `CCOc1ccc(C(=O)Nc2ccc([N+](=O)[O-])cc2OC)cc1Br` to `COc1ccc(C(=O)Nc2cc(C(F)(F)F)ccc2Cl)cc1OC`, the displacement rises from -2% to 10.5%.

Compared with `COc1ccc2nc(NC(=O)COC(=O)C(CCSC)NC(=O)c3ccccc3)sc2c1` (stereo not drawn), `COc1cc(OC)cc(C(=O)Nc2nc3ccc4ccccc4c3s2)c1` is lower in displacement: 7.7% for the first, -20.1% for the second.

First: O=C(NCc1ccccn1)c1cccs1
Second: CCOc1ccccc1NC(=O)c1c(NC(=O)c2cccs2)sc2c1CCCC2
The displacement of the first is lower: -5.1% for the first, -1.8% for the second.

Going from `Cc1cccc(OCCOc2ccc(/C=N/n3cnnc3)cc2)c1` to `Cc1ccc(/C=N/NC(=O)c2ccccc2C)cc1`, the displacement rises from -5.1% to 7.8%.

Going from `Cc1nc2ccccn2c1C(=O)NC(C)c1ccccc1` (stereo not drawn) to `NNC(=O)Cn1c(-c2ccccn2)nc2ccccc21`, the displacement rises from -0.7% to 4.7%.

Compared with `CCC(=O)Oc1cc(OC(=O)CC)c2c(C)cc(=O)oc2c1`, `Cc1oc2ccc(OCc3ccc([N+](=O)[O-])cc3)cc2c1C(=O)OC(C)C` is higher in displacement: -15.9% for the first, 13.2% for the second.

Compared with `CN(C)c1ccc(C2/C(=C(\O)c3ccc(Cl)cc3)C(=O)C(=O)N2c2cccnc2)cc1` (stereo not drawn), `CC(C)c1ccc(C2/C(=C(\O)c3ccccc3)C(=O)C(=O)N2CCN(C)C)cc1` (stereo not drawn) is higher in displacement: -40.1% for the first, 7.2% for the second.

Going from `COc1ccc(-c2cc(-c3ccc(C)cc3)nc(N3CCCC3)n2)cc1` to `CCC(=O)Nc1cccc(Oc2ccc3c(c2)C(=O)N(c2ccc(OC)cc2)C3=O)c1`, the displacement rises from -2.2% to 13.6%.

Compared with `CC(C)N(Cc1c(O)ccc2c(=O)c(-c3ccc(Cl)cc3)coc12)C(C)C`, `CS(=O)(=O)N(CC(=O)Nc1ccc(Cl)cc1)c1cccc(C(F)(F)F)c1` is higher in displacement: -10.8% for the first, 8.1% for the second.

Compared with `Cc1ccc(-n2c(O)c(C=NC3CCCCC3)c3ccccc3c2=O)cc1`, `O=C(NCc1cccc(F)c1)c1c(O)c2ccccc2[nH]c1=O` is higher in displacement: -2.3% for the first, 9% for the second.

Going from `CC(=O)Nc1ccc(NC(=S)NC(NC(=O)c2cccc([N+](=O)[O-])c2)C(Cl)(Cl)Cl)cc1` (stereo not drawn) to `COC(=O)Nc1ccc(NC(C)=O)cc1`, the displacement falls from 7.6% to -4.2%.

First: N#C/C(=N\Nc1ccccc1)c1nc(-c2ccc(F)cc2)cs1
Second: N/C(=N\S(=O)(=O)c1ccccc1)c1ccc(Cl)cc1
The displacement of the first is higher: 127% for the first, 12.3% for the second.

Compared with `O=C1NC(=S)S/C1=C/c1ccc(-c2ccccc2)o1`, `O=C1ON=C(c2ccccc2)/C1=C/c1ccc(Br)s1` is higher in displacement: 2.4% for the first, 70.8% for the second.

Going from `CCC1(C)CC(CCNCc2ccc(OC)c(OC)c2)(c2ccc(F)cc2)CCO1` (stereo not drawn) to `COc1ccc(S(=O)(=O)N(CC(=O)N2CCCC2)Cc2ccccc2)cc1OC`, the displacement falls from 3.3% to 2.5%.

Going from `C/C(=N\NC(=O)C1(C)CC1(Br)Br)c1ccc([N+](=O)[O-])cc1` (stereo not drawn) to `COc1ccc(NC(=O)CSC(N)=O)cc1`, the displacement rises from -6.4% to 5.2%.

Going from `NC(=O)c1c(NC(=O)Nc2ccc(Cl)cc2)sc2c1CCCC2` to `CC(C)OC(=O)c1c(NC(=O)c2ccc(Cl)cc2[N+](=O)[O-])sc2c1CCCCC2`, the displacement falls from 0.8% to -2.5%.

Compared with `O=C(Nc1cccnc1)c1sc2cc(F)ccc2c1Cl`, `Cc1cccc(C(=O)O)c1NC(=O)c1cccc(F)c1` is lower in displacement: 7.8% for the first, -12.9% for the second.

Compared with `C=CCN1C(=O)/C(=C/c2cc(I)cc(I)c2OC)SC1=S`, `Cc1cc(/C=C2\C(=O)NC(=S)N(c3cccc(Cl)c3)C2=O)c(C)n1C` is higher in displacement: 8.4% for the first, 9.7% for the second.

First: CCCCOc1ccc(C(C)=O)cc1CSc1nc(O)cc(=O)[nH]1
Second: CCOC(=O)c1ccc2nc(C)c(CC)c(Cl)c2c1
The displacement of the first is lower: -4.6% for the first, 6.4% for the second.

Compared with `CC(C)OC1=C(Cl)C(=O)c2ccccc2C1=O`, `COc1ccccc1C=C1C(=O)c2ccccc2C1=O` is higher in displacement: 10.6% for the first, 11.5% for the second.

Compared with `Cc1ccc(S(=O)(=O)NCc2ccco2)cc1C`, `CCOc1ccc(C(=O)NCc2ccco2)cc1Br` is lower in displacement: 15% for the first, -7.9% for the second.

First: COC(=O)C1=C(C)N=c2s/c(=C/c3ccccc3OC(C)=O)c(=O)n2C1c1ccc(OC(C)=O)cc1 (stereo not drawn)
Second: CCOC(=O)C1=C(C)N=c2s/c(=C\C=C\c3ccccc3)c(=O)n2C1c1ccc(OC(C)=O)cc1 (stereo not drawn)
The displacement of the first is lower: 6.8% for the first, 16.9% for the second.

Compared with `O=C1N=c2ccc(Br)cc2=C1c1sc(=S)n(NC(=O)c2ccccc2[N+](=O)[O-])c1O`, `O=C(O)c1ccc(Cl)c(-c2ccc(C=C3C(=O)c4ccccc4C3=O)o2)c1` is higher in displacement: -2.8% for the first, 99.1% for the second.

First: COc1ccc(/C=C2\C(=O)NC(=O)N(c3ccc(Cl)cc3)C2=O)cc1C(=O)O
Second: C#CCOc1ccc(/C=C2\C(=O)NC(=O)N(c3ccc(F)cc3)C2=O)cc1Br
The displacement of the first is higher: -0.4% for the first, -56.9% for the second.

First: Cc1cccc(C2OC3(C(=O)c4ccccc4C3=O)C3C(=O)N(c4ccccc4Br)C(=O)C23)c1 (stereo not drawn)
Second: CC1CC(N(C(=O)c2cccc(Br)c2)c2ccccc2)c2ccccc2N1 (stereo not drawn)
The displacement of the first is higher: 11.4% for the first, -3.5% for the second.

First: Cc1ccc(C(=O)Nc2cccc(NC(=O)c3ccco3)c2)cc1C
Second: Cc1ccc2nc(NC(=S)NC(=O)c3ccco3)sc2c1
The displacement of the first is higher: 60.4% for the first, 11.2% for the second.

First: COc1cc([N+](=O)[O-])cc2c1N=C(c1ccc(Cl)cc1Cl)NO2
Second: COc1ccc(C)cc1NC(=O)C(C)Oc1ccc(Cl)cc1C (stereo not drawn)
The displacement of the first is higher: 2% for the first, -8.5% for the second.

Compared with `CCOc1ccc(N=C2NC(=O)/C(=C/c3ccc(I)o3)S2)cc1`, `O=C1CS/C(=N\N=C/c2ccc(OCc3c(F)cccc3Cl)cc2)N1` is higher in displacement: -28.4% for the first, -1.6% for the second.

First: COc1ccc2c(c1)CCC1C2=NN(/C(C)=C/C(C)=O)C1c1ccc(N(C)C)cc1 (stereo not drawn)
Second: Cc1ccc(C)c(N2CC(C(=O)Nc3ccc(Br)cc3)CC2=O)c1 (stereo not drawn)
The displacement of the first is higher: 1.8% for the first, -6.2% for the second.

Going from `COc1nc(NS(=O)(=O)c2ccc(NC(C)=O)cc2)nc(C)c1Cl` to `CCOc1ccc(N(CC(=O)Nc2ccc(Br)cc2)S(=O)(=O)c2ccc(SC)cc2)cc1`, the displacement rises from -7.4% to 14%.

Going from `CCc1c(C)nc2[nH]nc(-c3ccccc3Cl)n2c1=O` to `CCc1ccc(O)c(N=Cc2cccc(C)c2O)c1`, the displacement rises from -9.1% to 6.6%.

First: O=C(c1ccc(Br)o1)N1CCN(C(c2ccccc2)c2ccccc2)CC1
Second: Clc1ccccc1CN1CCN(N=Cc2cccc(Br)c2)CC1
The displacement of the first is higher: 6.9% for the first, -6.7% for the second.

Going from `CN1C2=CC=CC=CC2=[N+](C)C12C=CC(=[N+]([O-])[O-])C=C2[N+](=O)[O-]` (stereo not drawn) to `CCOc1ccc(N(CC(=O)N2CCOCC2)S(=O)(=O)c2ccc(SC)cc2)cc1`, the displacement falls from 14.7% to -1.3%.

Compared with `CCc1nnc2c3c4c(sc3nc(C)n12)CCC4`, `CCOC(=O)c1c(NC(=S)NC(C)=O)sc2c1CCC2` is lower in displacement: 7.5% for the first, 0.1% for the second.

First: N#C/C(=C\c1ccc(I)o1)c1ccccc1
Second: OCc1ccc(-c2ccc(Br)cc2)o1
The displacement of the first is lower: -34% for the first, 10.8% for the second.

Compared with `CC(C)CC(=O)N1CCN(Cc2cccc(C(F)(F)F)c2)CC1`, `Cc1occc1C(=O)NCc1cccnc1` is higher in displacement: -8% for the first, 1.6% for the second.

Compared with `O=C(/C=C/c1ccc2c(c1)OCO2)NCC1CCCO1` (stereo not drawn), `Cc1cc(C)cc(OCC(=O)NCc2ccncc2)c1` is higher in displacement: -11% for the first, 0% for the second.

Going from `COc1cc(C(=O)N(CCO)CCO)ccc1OC1OC(COC(C)=O)C(OC(C)=O)C(OC(C)=O)C1OC(C)=O` (stereo not drawn) to `CCN1C(=O)N(CC)C2C1N(COC(C)=O)C(=O)N2COC(C)=O` (stereo not drawn), the displacement rises from 1.2% to 1.5%.

Going from `O=P(O)(c1ccc(Cl)cc1)c1ccc(Cl)cc1` to `Cc1ccc(CNC(=O)C(=O)Nc2ccc(C)cc2)cc1`, the displacement rises from -20.5% to -6.8%.

Going from `CCN(CC)C(=O)c1sc(NC(=O)c2ccc(F)cc2)c(C(=O)OC(C)C)c1C` to `COC(=O)c1cc(NC(=O)COc2ccc(C)cc2)cc(C(=O)OC)c1`, the displacement rises from 2.6% to 6.2%.

Going from `CCOC(=O)c1c(NC(=O)C2C3CCC(C3)C2C(=O)O)sc(C)c1C` (stereo not drawn) to `CCOC(=O)c1cccc(N2C(=O)C3C4C=CC(C4=C(C)C)C3C2=O)c1` (stereo not drawn), the displacement rises from -4.5% to 16.7%.

Going from `COc1ccc(C(=O)Nc2ccc3oc4ccc(NC(=O)c5ccc(OC)cc5)cc4c(=O)c3c2)cc1` to `COc1ccc(N(CC(=O)Nc2cccc3ccccc23)S(=O)(=O)c2ccc(C)cc2)cc1OC`, the displacement rises from -10% to 6.8%.

Compared with `COc1ccc(OC)c(/C=C2/SC(NC(C)=O)=NC2=O)c1`, `CCOc1cccc(C(=O)Nc2nnc(-c3cccs3)s2)c1` is lower in displacement: 156% for the first, 4.5% for the second.

Going from `CCN(CC)CCOCCOc1cc(C)ccc1C` to `CCC(CC)NCc1ccc2c(c1)c1ccccc1n2CC`, the displacement rises from 3.5% to 6.2%.

Compared with `COc1ccc(C2NC(=O)NC(c3ccccc3)=C2c2ccc3ccccc3n2)cc1OC` (stereo not drawn), `COCC(C)NCc1cc(OC)c(OC)cc1OC` (stereo not drawn) is lower in displacement: 7.8% for the first, 2.4% for the second.
